A number of entries come with more than one value. Only these are listed. The source may hold further records. The records of an entry are repeats in other runs, samples, wells, individuals or studies.
Columns and labels:
Assay type in all cases: toxicity, cell-based
Fibroblast = test: Multiplex assay against human fibroblast
Summary of the method: (§1)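 Values for tubulin, mitochondrial-mass and membrane-permeability phenotypes are per cents of cells with healthy nuclei. These cells were identified by CellPathfinder machine-learning gating of live cells that had been stained at seeding with Hoechst33342, BioTracker Green Microtubule Cytoskeleton Dye, MitoTracker Red and Annexin V Alexa Fluor 680 and imaged on a CQ1 microscope at 37°C and 5% CO2 after compound addition. The gating first set Hoechst high-intensity objects apart from normal cells, then split normal cells into healthy, pyknosed or fragmented nuclei, and pyknosed cells into mitotic or apoptotic.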

HEK-293T = test: Multiplex assay against HEK293T; conditions: human; summary of the method: as §1
U2OS = test: Multiplex assay against U2OS; conditions: human; summary of the method: as §1
[1] = 48 h, 10 µM, compound concentration 10 uM
[2] = 12 h, 1 µM, compound concentration 1 uM
[3] = 12 h, 10 µM, compound concentration 10 uM
[4] = 24 h, 1 µM, compound concentration 1 uM
[5] = 24 h, 10 µM, compound concentration 10 uM
[6] = 48 h, 1 µM, compound concentration 1 uM

SMILES	Population Healthy Nuclei (%) (HEK-293T; [2])	Population Tubulin-Different-Phenotype (%) (HEK-293T; [2])	Population Healthy Nuclei (%) (HEK-293T; [3])	Population Healthy Nuclei (%) (HEK-293T; [4])	Population Pyknosed Nuclei (%) (HEK-293T; [4])	Total Cell Count (HEK-293T; [4])	Population Healthy Nuclei (%) (HEK-293T; [5])	Population Apoptotic (%) (HEK-293T; [6])	Population Pyknosed Nuclei (%) (HEK-293T; [6])	Population Tubulin-Different-Phenotype (%) (HEK-293T; [6])	Total Cell Count (HEK-293T; [6])	Population Tubulin-Different-Phenotype (%) (HEK-293T; [1])	Total Cell Count (HEK-293T; [1])	Population Mitochondria Different-Phenotype (%) (U2OS; [3])	Population Mitochondria Different-Phenotype (%) (U2OS; [5])	Population Mitochondria Different-Phenotype (%) (U2OS; [1])	Population Mitochondria Different-Phenotype (%) (Fibroblast; [6])	Population Tubulin-Different-Phenotype (%) (Fibroblast; [6])	Total Cell Count (U2OS; [6])	Total Cell Count (U2OS; [1])	also measured
FC(F)(F)c1ccccc1-c1cc(C(F)(F)F)c2[nH]c(C3=NOC4(CCCCC4)C3)nc2c1	53.7% and 12.75%	6.9% and 26.32%	45.1% and 9.73%	79.85% and 25.87%	18.67% and 72.03%	541 and 143	53.52% and 7.87%	5.48% and 21.43%	12.16% and 45.75%	2.33% and 41.98%	1201 and 153	19.58% and 79.49%	511 and 116	4.38% and 34.65%	1.66% and 38.13%	1.2% and 26.29%					Population Apoptotic (%) (Fibroblast; [1]): 3.57% and 44.83%; Population Membrane Permeable-Phenotype (%) (U2OS; [5]): 7.62% and 25.18%; Population Membrane Permeable-Phenotype (%) (U2OS; [1]): 6.79% and 21.71%
CN(C)CCOc1ccc(/C(=C(/CCCO)c2ccccc2)c2ccc(O)cc2)cc1	58.82% and 15.57%	8.64% and 26.92%	39.81% and 6.43%			536 and 166	46.03% and 14.06%		12.67% and 46.57%	3.23% and 44.86%	1155 and 204	26.65% and 88.89%	522 and 137	3.64% and 80.41%	10.07% and 72.29%	3.46% and 55.81%	14.29% and 3.23%	7.59% and 23.5%	950 and 306	625 and 175	Population Apoptotic (%) (Fibroblast; [4]): 6.52% and 21.21%; Population Healthy Nuclei (%) (HEK-293T; [1]): 62.3% and 20%; Population Mitochondria Different-Phenotype (%) (U2OS; [2]): 0.28% and 14.39%; Population Mitochondria Different-Phenotype (%) (U2OS; [4]): 0.21% and 12.72%; Population Mitochondria Different-Phenotype (%) (U2OS; [6]): 0.24% and 12%; Population Membrane Permeable-Phenotype (%) (U2OS; [1]): 4.32% and 23.26%
COCCNc1nc2ccc(C#CC3(O)CCCCC3)cc2n1-c1ccnc(N)n1	58.36% and 13.74%	4.55% and 16.67%	31.43% and 9.64%			595 and 168	44.47% and 14.11%			1.02% and 19.88%	1579 and 254	7.82% and 53.23%	790 and 206	0.57% and 43.48%	0% and 27.21%	0.79% and 10.9%	20.87% and 4%		894 and 194	769 and 249	Population Mitochondria Different-Phenotype (%) (HEK-293T; [2]): 32.27% and 5.56%; Population Mitochondria Different-Phenotype (%) (HEK-293T; [3]): 16.36% and 50%; Total Cell Count (U2OS; [2]): 363 and 109; Total Cell Count (U2OS; [4]): 465 and 128
COc1ccc(-n2c(C)c([N+](=O)[O-])c3ccc(O)cc32)cc1	56.94% and 11.89%	8.63% and 47.06%	58.84% and 16.18%			545 and 148			10.35% and 31.52%	2.78% and 52.89%	1035 and 184	4.89% and 37.74%	702 and 161					5.45% and 22.09%		1001 and 290	Population Tubulin-Different-Phenotype (%) (HEK-293T; [3]): 8.23% and 31.82%; Total Cell Count (HEK-293T; [3]): 414 and 137; Population Tubulin-Different-Phenotype (%) (HEK-293T; [4]): 23.93% and 4.88%; Total Cell Count (U2OS; [3]): 466 and 140; Total Cell Count (U2OS; [5]): 600 and 180
Cl.Clc1cc2cc(c1)-c1cnn3ccc(nc13)NCCOCCO2	61.13% and 11.54%	1.84% and 16.67%		78.11% and 23.65%	20.96% and 71.62%	539 and 148		2.29% and 16.18%	9.51% and 33.33%	1.33% and 31.06%	1378 and 206	0.4% and 19.67%	862 and 265	0.24% and 10.88%			18.03% and 2.15%	7.65% and 24.46%	936 and 308		Population Apoptotic (%) (Fibroblast; [5]): 9.68% and 30.3%; Population Tubulin-Different-Phenotype (%) (HEK-293T; [3]): 6.55% and 41.46%; Population Apoptotic (%) (U2OS; [2]): 43.75% and 5.88%
CCn1cnc2c(-c3ccc(F)c(-c4ccc(S(=O)(=O)CC)cc4OC)c3)cnnc21 [DARIGABAT]			30.7% and 9.7%	61.23% and 14.29%		455 and 114	36.52% and 10.95%			3.72% and 43.55%	732 and 146	21.08% and 78.95%		1.19% and 35.78%	0.76% and 28.07%	3.63% and 37.5%		5.48% and 19.05%			Population Fragmented Nuclei (%) (Fibroblast; [3]): 14.94% and 0.96%; Population Fragmented Nuclei (%) (Fibroblast; [5]): 19.77% and 5.41%; Population Fragmented Nuclei (%) (Fibroblast; [1]): 17.74% and 5.43%; Population Tubulin-Different-Phenotype (%) (HEK-293T; [5]): 63.1% and 13.33%; Population Healthy Nuclei (%) (HEK-293T; [1]): 63.14% and 14.73%; Population Tubulin-Different-Phenotype (%) (U2OS; [3]): 14.62% and 2.75%
O=C(Nc1cc(C(F)(F)F)cc(C(F)(F)F)c1)c1cc(Cl)ccc1O [IMD-0354]		3.38% and 37.04%					15.62% and 3.53%			1.78% and 19.27%	718 and 203	7.32% and 29.41%									Population Tubulin-Different-Phenotype (%) (Fibroblast; [3]): 4.46% and 16.67%; Population Membrane Permeable-Phenotype (%) (Fibroblast; [5]): 5.21% and 18.82%; Population Tubulin-Different-Phenotype (%) (Fibroblast; [5]): 11.46% and 40%; Population Mitochondria Different-Phenotype (%) (HEK-293T; [2]): 42.57% and 7.41%; Population Mitochondria Different-Phenotype (%) (HEK-293T; [3]): 63.64% and 0%; Population Fragmented Nuclei (%) (U2OS; [1]): 3.05% and 18.35%
CC(C)CC(=O)Nc1cncc(-c2ccc3[nH]nc(-c4nc5c(-c6cccc(F)c6)cncc5[nH]4)c3c2)c1 [LORECIVIVINT]	29.19% and 6.48%			33.97% and 7.48%																	Population Apoptotic (%) (Fibroblast; [2]): 4.55% and 37.04%; Population Tubulin-Different-Phenotype (%) (HEK-293T; [3]): 32.26% and 6.45%; Population Mitochondria Different-Phenotype (%) (HEK-293T; [5]): 24.39% and 5%; Population Healthy Nuclei (%) (HEK-293T; [6]): 34.76% and 8.94%; Population Membrane Permeable-Phenotype (%) (HEK-293T; [6]): 5.26% and 27.27%; Population Mitochondria Different-Phenotype (%) (U2OS; [2]): 0.33% and 11.4%; Population Mitochondria Different-Phenotype (%) (U2OS; [4]): 0.32% and 16.96%; Population Tubulin-Different-Phenotype (%) (U2OS; [1]): 19.46% and 3.53%
Cc1noc(C)c1-c1cnc2c(-c3ccc(C(=O)O)cc3)cn([C@@H](C)c3ccccn3)c2c1 [PLX-51107]	58% and 18.54%					754 and 230		5.04% and 20.48%	9.62% and 31.32%		1447 and 265						14.29% and 0.46%			755 and 232	Population Apoptotic (%) (Fibroblast; [4]): 17.86% and 5.56%; Population Mitochondria Different-Phenotype (%) (Fibroblast; [1]): 17.44% and 4.21%; Population Mitochondria Different-Phenotype (%) (HEK-293T; [2]): 24.01% and 3.57%; Total Cell Count (HEK-293T; [2]): 481 and 151; Population Fragmented Nuclei (%) (HEK-293T; [3]): 2.27% and 19.57%; Population Mitochondria Different-Phenotype (%) (HEK-293T; [3]): 14.79% and 1.37%; Population Fragmented Nuclei (%) (HEK-293T; [5]): 1.23% and 19.09%; Population Apoptotic (%) (HEK-293T; [1]): 4.67% and 19.13%; Population Fragmented Nuclei (%) (HEK-293T; [1]): 3.37% and 16.98%
O=C(Nc1ccccc1Br)N[C@@H]1CCN(c2ccc(C(F)(F)F)cn2)C1 [SB-705498]	59.88% and 19.75%	8.37% and 40.62%	42.69% and 8.78%		23.17% and 71.93%	562 and 171	64.72% and 18.18%		10.9% and 40.78%	1.62% and 50.48%	1147 and 179	3.99% and 50%	869 and 176		0.2% and 16.55%					1026 and 273	Population Fragmented Nuclei (%) (Fibroblast; [2]): 26.49% and 5.82%; Population Fragmented Nuclei (%) (Fibroblast; [4]): 23.81% and 4.5%; Population Apoptotic (%) (HEK-293T; [1]): 4.72% and 19.75%; Population Pyknosed Nuclei (%) (HEK-293T; [1]): 14.61% and 46.02%; Total Cell Count (U2OS; [5]): 579 and 167

Reference: ChEMBL document CHEMBL5724801, “EUbOPEN Chemogenomics Library - Multiplex” (2024)
